The other results are listed elsewhere or left out. Cleavage of a single-stranded DNA pool by Rep nickase domains was read by sequencing for 1 h at 37 °C with 3 µM enzyme; only the middle of the 90-letter strands is printed. The score is log2 (uncut reads / reads without enzyme); the lower, the more was cut; hits are not called. Reads are scaled to the total, so uncut sequences can rise above 0 when many others are cut.
Tests used:
Test in all cases: uncleaved DNA left, log2 of reads against the no-enzyme library (log2 ratio); higher = less cleavage (more negative = more Rep cleavage of the k-mer); sequences stand for … in CTCGTCCG…ACCGGAGA
[1] = test system: T1, Rep nickase domain of Muscovy duck circovirus
T1 sequence (Rep 1-111, printed without the tag): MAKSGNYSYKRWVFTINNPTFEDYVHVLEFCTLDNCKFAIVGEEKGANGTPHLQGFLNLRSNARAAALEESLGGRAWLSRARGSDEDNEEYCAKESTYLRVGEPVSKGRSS
Protocol: (§1)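 A pool of 90-nt single-stranded DNAs with seven random bases just before the constant AC of the nick site (name = the seven bases) was cut by 3 µM recombinant His6-SUMO-tagged Rep nickase domain (300 nM DNA, 50 mM HEPES pH 8.0, 50 mM NaCl, 1 mM MnCl2, 1 h, 37 °C, three replicates). Uncut DNA was amplified and sequenced.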

[2] = test system: T2, Rep nickase domain of banana bunchy top virus
T2 sequence (Rep 1-94, printed without the tag): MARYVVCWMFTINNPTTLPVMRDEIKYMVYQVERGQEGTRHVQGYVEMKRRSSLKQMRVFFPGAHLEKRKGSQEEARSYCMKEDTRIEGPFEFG
Protocol: as §1

[3] = test system: T3, Rep nickase domain of cabbage leaf curl virus
T3 sequence (Rep 1-116, printed without the tag): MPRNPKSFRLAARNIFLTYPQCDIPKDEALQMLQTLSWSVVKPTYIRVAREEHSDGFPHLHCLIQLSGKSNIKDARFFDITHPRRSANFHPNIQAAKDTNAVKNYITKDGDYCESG
Protocol: as §1

[4] = test system: T4, Rep nickase domain of chickpea chlorotic dwarf virus
T4 sequence (Rep 1-124, printed without the tag): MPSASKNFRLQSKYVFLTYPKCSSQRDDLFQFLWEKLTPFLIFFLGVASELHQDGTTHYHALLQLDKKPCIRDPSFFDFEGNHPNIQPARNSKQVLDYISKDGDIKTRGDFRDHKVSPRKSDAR
Protocol: as §1

[5] = test system: T5, Rep nickase domain of faba bean necrotic yellows virus
T5 sequence (Rep 1-98, printed without the tag): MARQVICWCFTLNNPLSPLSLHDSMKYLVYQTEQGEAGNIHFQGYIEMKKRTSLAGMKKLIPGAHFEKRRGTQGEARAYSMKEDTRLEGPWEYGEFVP
Protocol: as §1

[6] = test system: T6, Rep nickase domain of maize striate mosaic virus
T6 sequence (Rep 1-117, printed without the tag): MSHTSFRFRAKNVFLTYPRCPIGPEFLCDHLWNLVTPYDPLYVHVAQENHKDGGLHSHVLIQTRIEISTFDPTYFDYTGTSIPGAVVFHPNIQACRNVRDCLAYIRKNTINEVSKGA
Protocol: as §1

[7] = test system: T7, Rep nickase domain of porcine circovirus 2
T7 sequence (Rep 2-116, printed without the tag): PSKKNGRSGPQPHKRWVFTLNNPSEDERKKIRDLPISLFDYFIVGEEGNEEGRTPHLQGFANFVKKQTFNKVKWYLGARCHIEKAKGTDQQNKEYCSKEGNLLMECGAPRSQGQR
Protocol: as §1

[8] = test system: T8, Rep nickase domain of tomato golden mosaic virus
T8 sequence (Rep 1-124, printed without the tag): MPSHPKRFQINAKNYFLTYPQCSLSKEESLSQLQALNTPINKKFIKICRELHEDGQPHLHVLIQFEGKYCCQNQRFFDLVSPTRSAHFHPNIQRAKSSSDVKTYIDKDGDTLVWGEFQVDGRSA
Protocol: as §1

[9] = test system: T9, Rep nickase domain of tomato yellow leaf curl virus
T9 sequence (Rep 1-136, printed without the tag): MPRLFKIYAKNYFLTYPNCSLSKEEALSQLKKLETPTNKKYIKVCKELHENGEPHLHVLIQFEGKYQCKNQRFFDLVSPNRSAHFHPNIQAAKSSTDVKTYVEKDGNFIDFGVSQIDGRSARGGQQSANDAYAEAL
Protocol: as §1

[10] = test system: T10, Rep nickase domain of wheat dwarf virus
T10 sequence (Rep 1-137, printed without the tag): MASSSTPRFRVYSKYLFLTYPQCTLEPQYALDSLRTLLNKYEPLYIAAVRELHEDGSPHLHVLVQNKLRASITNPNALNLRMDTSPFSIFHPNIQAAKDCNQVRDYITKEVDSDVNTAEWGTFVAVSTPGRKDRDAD
Protocol: as §1

Sequence	uncleaved DNA left (log2) [1]	uncleaved DNA left (log2) [2]	uncleaved DNA left (log2) [3]	uncleaved DNA left (log2) [4]	uncleaved DNA left (log2) [5]	uncleaved DNA left (log2) [6]	uncleaved DNA left (log2) [7]	uncleaved DNA left (log2) [8]	uncleaved DNA left (log2) [9]	uncleaved DNA left (log2) [10]
CAAGTGC	-0.0894	-0.0924	-0.714	-0.728	-0.083	-1.29	0.0468	-0.0461	0.0454	-0.197
AGGTAGG	0.0819	-0.0293	0.0337	0.298	0.0844	-0.0817	0.124	0.0299	-0.066	-0.112
AGCTCTT	-0.591	-0.0495	-0.0264	-0.701	-0.00265	0.897	-2.98	0.000951	0.0539	-0.0896
CACAGCA	0.15	0.038	-0.382	-1.37	0.0297	-1.05	-0.0851	0.0914	-0.0432	0.0337
TTCCCTT	-0.105	-0.0292	0.238	-1.59	0.0223	0.00377	-0.64	-0.112	0.12	-0.0201
AGTAGAG	0.185	0.0949	-0.483	-0.273	0.114	-1.07	0.386	0.157	0.112	0.101
CACAACG	0.0435	0.0341	-0.92	-0.303	3.79e-05	-1.02	0.00776	-0.0252	-0.099	-0.168
CCGTAGG	0.165	-0.0348	0.193	0.735	0.0245	0.502	0.245	0.177	0.0955	0.00013
GCATCTA	-0.037	0.0854	0.0461	-0.228	-0.0456	0.0617	-0.0395	0.0536	-0.0854	0.083
GTCCGAT	-0.0736	0.00961	0.286	0.893	-0.122	1.52	-0.0674	-0.0882	-0.0506	-0.0962
GCTTGCC	0.0133	0.0726	0.0589	0.501	0.104	-0.344	0.11	0.0512	0.0488	0.0508
TGACAGT	0.0192	0.129	0.628	1.16	0.098	1.65	0.0925	0.0272	0.0366	0.16
GAGACGC	0.0171	0.152	0.789	1.9	0.016	1.96	0.181	0.111	0.119	0.117
GACTACT	-2.78	-2.54	-0.379	-2.25	-0.213	0.623	-2.73	-0.116	0.145	0.141
GCTACCT	0.0471	0.0132	0.156	-1.11	-0.0327	0.419	-0.212	0.02	0.128	0.0915
GCTTGTC	-0.0968	-0.101	0.0136	0.497	-0.165	-0.03	-0.0917	-0.112	-0.103	-0.0238
GACTACA	-0.0592	-0.11	0.0596	-1.47	-0.0645	0.598	-1.8	-0.0877	0.0356	-0.0241
TCGACTA	0.0105	-0.0285	0.0275	0.577	0.0346	1.44	-0.014	-0.0763	-0.0185	0.0368
TTCAGTA	0.0338	-0.128	0.0875	-0.878	-0.0316	-0.383	-0.145	-0.168	-0.0385	-0.033
TCTTTTG	-0.0543	-0.155	-0.409	-0.662	-0.162	-1.08	-0.101	-0.159	-0.144	-0.213
TCTCTGG	0.142	-0.0133	0.418	0.837	0.136	0.98	0.191	0.187	0.0882	0.111
ACCTCGG	-0.0545	-0.00781	-0.0518	0.297	0.0653	-0.499	0.0907	0.0858	-0.107	-0.0526
AGAACTA	0.0629	-0.0142	0.198	0.199	-0.0255	0.812	-0.0272	-0.0406	0.0196	0.116
CACGGGA	0.122	0.127	0.387	0.713	0.0691	0.716	0.0391	0.0232	0.0259	0.0415
TTGCACG	-0.179	-0.137	-1.12	-0.833	0.0131	-1.37	-0.0877	-0.0861	-0.162	-0.203
ATAACGC	-0.0788	-0.141	-0.642	-0.8	-0.0416	-1.09	0.0654	-0.104	-0.106	-0.174
AAACCAC	-0.0733	-0.141	-0.0761	-1.4	-0.0601	-0.858	-0.446	-0.072	-0.123	-0.0582
TTTATGC	0.0242	0.035	-0.512	-0.587	0.0157	-1.1	0.0493	-0.0717	0.0538	-0.0161
AATCCTT	-0.262	-0.185	-0.194	-2.6	-0.104	-0.182	-1.78	-0.233	-0.17	-0.163
GCTACGT	-0.0199	0.00923	0.191	0.302	-0.0136	0.179	-0.0187	0.00109	0.036	0.0179
